Results published in the supplement of paper PMC3334620.
In all, about 33,000 sequences were measured (“E-score (-0.5 to 0.5)”: median about -0.036, highest 2% from about 0.37 on). The list shows a part of the results.

These sequences were tested against T1, Yer064c (UniProt P40041) (assay: PBM E-score (8-mer binding enrichment) (E-score (-0.5 to 0.5)); higher = stronger / more preferred TF binding; most listed sequences are background and not binding sites). Settings: protein concentration: 200 nM; construct: GST-full length.
T1 sequence: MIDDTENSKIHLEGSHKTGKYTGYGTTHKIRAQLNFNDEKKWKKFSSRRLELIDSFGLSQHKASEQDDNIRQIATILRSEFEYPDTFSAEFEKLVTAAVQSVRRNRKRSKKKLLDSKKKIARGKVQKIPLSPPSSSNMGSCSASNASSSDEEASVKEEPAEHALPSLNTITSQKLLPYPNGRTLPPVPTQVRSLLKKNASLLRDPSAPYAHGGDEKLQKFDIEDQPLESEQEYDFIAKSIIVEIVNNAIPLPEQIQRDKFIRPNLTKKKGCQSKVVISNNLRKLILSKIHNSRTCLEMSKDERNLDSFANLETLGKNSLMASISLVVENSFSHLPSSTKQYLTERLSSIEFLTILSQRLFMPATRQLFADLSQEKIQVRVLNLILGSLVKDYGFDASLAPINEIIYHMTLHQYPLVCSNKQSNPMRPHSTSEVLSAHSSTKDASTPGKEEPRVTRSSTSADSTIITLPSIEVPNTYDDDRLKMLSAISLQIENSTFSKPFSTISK
How it was run: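 Using PURExpress in vitro transcription/translation, GST-tagged yeast transcription factors were made in full-length or DNA-binding-domain form. These were applied at about 100-200 nM to double-stranded universal all-10-mer Agilent arrays, and bound protein was detected with fluorescent anti-GST. Scans were normalised with masliner before the Universal PBM Analysis Suite assigned E-scores to ungapped eight-base words pooled with their reverse complements.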

Sequence	PBM E-score
CCCTCATA	-0.0944
GCATGGGC	-0.209
ATTTCTGA	0.124
TACCACCA	-0.191
CTAAACGC	-0.0203
AAGCCCCC	-0.335
ACCGTAAC	0.0129
AGACTAAC	0.413
CGGGTCTC	-0.229
CGGACCAA	0.0184
GGGAGTTA	-0.0443
AACCAGAT	0.0191
GTTTCTGA	0.0765
CCCTAAAC	-0.12
CGCGAGCA	-0.16
ATAGAATG	-0.0817
TGCTCGAA	-0.124
ACCTATCC	-0.194
AATTAATG	0.0129
CATGACTA	0.491
AAATTTTC	-0.0466
CCTGTTCA	-0.183
CACTTAGC	-0.0151
ACTTGTGG	-0.0625
CCCACAAG	-0.153

Sequence	PBM E-score
CAAGGAGC	-0.0412
AAGGATCG	-0.0994
CGCGGAGA	0.0408
CTGCTACA	-0.0937
AAATGACA	-0.0093
ATTCCTGA	0.169
TCGACTAA	0.373
CCGTGTCA	-0.166
CCCTGGGC	-0.0764
CAAACTTC	0.0269
AGGTACTA	0.0119
TCGAGACA	0.186
CCCCCCCC	-0.322
CCGGGGCC	-0.188
AAAACAGC	-0.118
ACGGAGTC	0.431
AGTATCCG	0.0461
ATATCCGA	0.0402
CACCCCCC	-0.21
CCCCGGTA	-0.142
TGTCGCAA	-0.0497
AACCCTAG	-0.0457
CACGGACC	-0.102
GTCCGATA	-0.117
CCGTAGTC	0.394

Sequence	PBM E-score
GAGGACGC	-0.224
GAGCTGGC	-0.0442
GAATGAGC	-0.048
AAACGACC	-0.0678
AAACCTCA	0.0225
ATTGTGGC	-0.101
ACACAGGA	0.138
CGTCCAGC	-0.0372
GCATGAGC	-0.0333
GCTCCAAA	-0.0487
AACGAGCA	-0.13
ATCCTATG	-0.0227
ATTAATAA	0.163
ATCTCCGG	-0.0467
TGAGGGAA	-0.107
ATTTAAGG	0.154
AATCATGG	0.42
AGCAGGCC	-0.289
AATAGTCA	0.478
CTACGCTA	-0.141
AACGTCTC	0.0798
GGAGGATA	-0.225
ATCTCGAA	0.0351
ATTTCTGG	-0.033
CTGTGAGC	0.067

Sequence	PBM E-score
TACACGTA	-0.0462
CCCTACAC	0.0409
CGTCATCA	-0.004
AATGAGGT	-0.156
CAACGCAC	-0.168
ATAATAGC	-0.226
CTAGTCTC	0.278
ACGTGAAC	-0.144
CGTGGAAC	-0.0822
ATTGTGGA	-0.144
CCATTCAG	-0.0069
CAGATGCC	-0.0361
CGCGGGCC	-0.143
GACGGGGA	-0.164
ATGTAGTC	0.382
GGTAACCA	0.107
CGGAGTAC	-0.0665
CACTACAG	-0.029
TGATCCCA	-0.0706
GCTTTGAA	-0.0423
AAAAGCCA	0.0563
CCCGTGAG	0.00023
TAGTACAA	0.0653
CCCGCAGG	-0.172
CACTTCTA	-0.082

Sequence	PBM E-score
CTGATCAC	0.113
AAGAACGA	-0.0139
ACGTCAGG	-0.249
CGCACTTA	-0.0909
TCGGTACA	0.0864
AAAGGCTG	-0.239
CATCGGGG	0.0339
AGGTCCTA	-0.168
GCTTGGTA	-0.0666
CATGGTAC	-0.168
GGATGGGA	-0.112
AAGGCACA	-0.074
ACGTCAAG	-0.0851
GGTCATAA	0.081
CATCGAGG	-0.185
AGTGCCCC	-0.199
GTGCTCAA	-0.0327
CCTCCCCC	-0.224
ACGTGAAA	0.0132
CGCCATTC	-0.0225
ATCATGAT	0.378
TAGGGTAA	0.0676
ACCCACTA	0.0264
GGCGCGAC	0.216
AGAAAGTA	0.12

Sequence	PBM E-score
AAATGCCA	-0.316
CCGTGCAC	-0.198
AAGCGCAG	-0.226
ACGTGTAA	0.133
AGGCGGGG	-0.0194
CATTACCA	0.0233
ATCCTCCC	-0.107
CAAGGACC	-0.148
ACACTGTA	0.0363
CCTTACTA	0.013
TCTCTCCA	-0.0935
TCCCAGAA	0.00854
ATATTCGA	-0.17
ATTATTTA	0.137
AGCGTACC	-0.271
GTATGCGA	0.0503
TCGCCTCA	-0.0436
CCCGAATC	0.171
GATGTTAA	-0.135
AATCAATC	0.301
CTCCGTTA	-0.0127
ACAGATAA	-0.0819
ACAGTTAG	0.00184
AGAGTGTG	0.0751
GACTCGTA	0.419

Sequence	PBM E-score
ACACATAG	0.0887
CTTTACGC	0.0163
CAATCCAG	-0.149
CACTATGG	-0.105
AGCGTCAT	0.0509
CAAAGCGG	-0.0843
CGCAACTA	-0.0474
TCTGACAA	0.138
CCGTTCCA	-0.214
AGCTATTA	0.014
ATAATTCA	0.0758
GAAGGCGC	-0.375
GAGCCTAA	0.0125
CAAGAACC	-0.0183
TGCCGTAA	-0.0995
CGTTAACG	-0.0607
AAAGACCG	-0.163
CCGACCTA	-0.0879
GAAACTGA	0.0888
ATCGAGAT	-0.151
GCACTCCC	-0.147
TCGGTCAA	-0.00415
